{
  "source": "ChEMBL document CHEMBL1157539",
  "about": "“Thousands of chemical starting points for antimalarial lead identification” (Nature, 2010)",
  "note": "In all, about 13,000 compounds were measured (“IFI”: median about 4, highest 2% from about 17 on). The list shows a part of the results.",
  "data": [
    {"assay": "GSK_TCMDC: Inhibition Frequency Index (IFI). The number of non-kinase HTS assays where a compound showed > 50 % inhibition, expressed as a percentage of the number of such assays in which the compound was tested (-0 is zero)", "type": "functional", "units": {"IFI": "%"}, "values": [
      {"smiles": "O=C(NCc1ccccc1[S+]([O-])c1ccccc1CO)C(F)(F)F", "note": "(stereo not given)", "IFI": 3.01},
      {"smiles": "O=C(c1ccccc1[N+](=O)[O-])N(Cc1ccccc1)c1ccccn1", "IFI": -0},
      {"smiles": "CN1CCC(N2CCN(c3ccc4c(=O)nc(CCc5cccc(F)c5F)n(CC(=O)N(C)Cc5ccc(-c6ccc(C(F)(F)F)cc6)cc5)c4n3)CC2)CC1", "IFI": 13.2},
      {"smiles": "O=C(N[C@H]1CCN(Cc2ccc(OCCCN3CCCCC3)cc2)C1)c1cc(Cl)cc(Cl)c1", "IFI": 5.44},
      {"smiles": "COc1cccc(OCC2CCCN(CCCCNC(=O)c3ccc(NC(=O)c4ccc(Cl)cc4)cc3)C2)c1", "note": "(stereo not given)", "IFI": 7.02},
      {"smiles": "CC(=NNC(S)=Nc1ccccc1Cl)c1ccccn1", "IFI": 6.57},
      {"smiles": "CN1CCN(c2ccnc3ccc(NC(=O)Nc4ccc(Cl)c(Cl)c4)cc23)CC1", "IFI": -0},
      {"smiles": "Cc1ccccc1C1CCN(C2CCC(NC(=O)c3cc(-c4ccc(Cl)cc4)cs3)CC2)CC1", "note": "(stereo not given)", "IFI": 22.4},
      {"smiles": "CNC(=O)c1cnc(Nc2ccc(OCC(O)CN(C)C)cc2)nc1Nc1cccc([N+](=O)[O-])c1", "note": "(stereo not given)", "IFI": 4.96},
      {"smiles": "N#Cc1cccc(-c2nc(NCc3cccc(C(F)(F)F)c3)nn2-c2cccc(C(F)(F)F)c2)c1", "IFI": 1.43},
      {"smiles": "Fc1ccc2ncc(Cl)c(CCN3CCC(NCc4cc5c(cn4)OCCO5)CC3)c2c1", "IFI": 0.72},
      {"smiles": "CC1(CCc2ccccc2)N=C(N)N(Cc2ccccc2)C(=O)C1c1ccc(Cl)c(Cl)c1", "note": "(stereo not given)", "IFI": 19.2},
      {"smiles": "OCC1CCN(Cc2ccc(-c3ccc(-c4nc5cc(C(F)(F)F)ccc5[nH]4)s3)cc2)CC1", "IFI": 3.92},
      {"smiles": "Nc1nnc(-c2ccc(Cl)c(Br)c2)c(N)n1", "IFI": 2.01},
      {"smiles": "O=C(NC1CCCCC1)N(Cc1ccc(-c2cccc(CNCc3ccc4c(c3)OCO4)c2)cc1)C1CCN(Cc2ccccc2)CC1", "IFI": 6.98},
      {"smiles": "COc1ccccc1CCCN1C(=O)C(c2ccccc2)(c2ccccc2)N=C1N", "IFI": 22.3},
      {"smiles": "Cc1ccc2c(=NN=Cc3cccc(Cl)c3)cc(C)[nH]c2c1", "IFI": 10.1},
      {"smiles": "CCc1cc(Br)c2c(c1)C(NCCCNc1cc(=O)c3ccccc3[nH]1)CCN2", "note": "(stereo not given)", "IFI": 4.83},
      {"smiles": "COc1ccc2nccc(NCC3(O)CCN(CC(O)c4ccc5c(c4)NC(=O)CS5)CC3)c2n1", "note": "(stereo not given)", "IFI": 0},
      {"smiles": "CCCCCCCN1CC[C@@H](CCCc2ccnc3ccc(OCCN4CCNCC4)cc23)[C@@H](CC)C1", "IFI": 9.49},
      {"smiles": "Cn1cc(C2CCN(CCCCNC(=O)c3ccc(C(=O)Nc4ccc(C#N)cc4)cc3)CC2)c2ccccc21", "IFI": 3.57},
      {"smiles": "O=C(Cn1c(=O)cnc2ccccc21)Nc1cccc(C(=O)Nc2cccc(C(F)(F)F)c2)c1", "IFI": 0},
      {"smiles": "O=C(NC1CCC(CCN2Cc3ccc(Br)cc3C2)CC1)c1cccc(-c2cccnc2)c1", "note": "(stereo not given)", "IFI": 2.16},
      {"smiles": "Cc1n[nH]c2cc(F)c(-c3cc(OC[C@@H](N)Cc4ccccc4)cnc3-c3ccoc3)cc12", "IFI": 11.9},
      {"smiles": "O=C(Nc1ccc(Cl)cc1)Nc1ccc(-c2cccc(-c3nc4cc(F)ccc4[nH]3)c2)cc1", "IFI": 4.04},
      {"smiles": "CCOc1ccc2nc3cc([N+](=O)[O-])ccc3c(N)c2c1", "IFI": 6.34},
      {"smiles": "CCN(CC)CCCNc1ncc2c(-c3ccc(NC(=O)Nc4cc(C(F)(F)F)ccc4F)c(F)c3)nn(C)c2n1", "IFI": 12.9},
      {"smiles": "COc1ccc(Cl)cc1N1CCN(CCCNC(=O)c2ccc(-c3nc4c(C)cccc4[nH]3)s2)CC1", "IFI": 1.5},
      {"smiles": "Cn1c(=O)c2nc(-c3ccc(Cl)cc3)nnc2n(CCCC#N)c1=O", "IFI": -0},
      {"smiles": "CC(C)n1ncc2c(C(=O)N3CCCCCC3)cc(-c3ccccc3)nc21", "IFI": 1.49},
      {"smiles": "CC(=O)Nc1ccc(OCCN(Cc2ccccc2OC(F)(F)F)c2ccc(C(F)(F)F)c(C#N)c2)c(Cl)c1", "IFI": 0},
      {"smiles": "CCCCCCN1CCN(Cc2cccc(NC(=O)c3cc4ccccc4s3)c2)CC1", "IFI": 4.79},
      {"smiles": "Cc1ccc(Nc2nccc(NCC(O)c3cccc(C(F)(F)F)c3)n2)cc1", "note": "(stereo not given)", "IFI": 17.9},
      {"smiles": "CCC[C@@H]([C@@H](CC1CCC(C)CC1)C(=O)N[C@@H](CCCCNC(=O)c1ccccn1)C(=O)Nc1nccs1)N(O)C=O", "note": "(stereo not given in full)", "IFI": 4.76},
      {"smiles": "Cc1ccccc1C1CCN(C2CCC(NC(=O)c3ccc4c(c3)-c3nocc3C(C)O4)CC2)CC1", "note": "(stereo not given)", "IFI": 10.2},
      {"smiles": "O=C(/C=C/c1ccc(Cl)c(Cl)c1)N1CCC(CN2CCC(c3c[nH]c4ncccc34)CC2)CC1", "IFI": 2.34},
      {"smiles": "COc1cc(C=CC(=O)N2CCC(CCN3CCC(c4c[nH]c5ccccc45)CC3)CC2)cc(OC)c1", "IFI": 6.43},
      {"smiles": "CS(=O)(=O)CCNCc1nc(-c2ccc3c(Nc4ccc(Oc5ccccn5)cc4)ccnc3c2)cs1", "IFI": 2.94},
      {"smiles": "Cc1cc(NC2CCN(Cc3ccccc3)CC2)nc(NCCCCc2ccccc2)n1", "IFI": 10.6},
      {"smiles": "N#Cc1ccc(N/C(=N\\c2cccc(Cl)c2Cl)NCc2ccc(Cl)cc2Cl)c(O)c1", "IFI": 5.8},
      {"smiles": "O=C(Nc1ccc(CN2CCN(S(=O)(=O)c3ccc(Cl)s3)CC2)cc1)c1cccs1", "IFI": 2.29},
      {"smiles": "Cc1ccc(Cl)c2sc(N3CCN(C(=O)c4ccc([N+](=O)[O-])o4)CC3)nc12", "IFI": 6.54},
      {"smiles": "O=S(=O)(Nc1cccc(CCN2CCC(N3CCCCC3)CC2)c1)c1ccc(-c2ccccc2)cc1", "IFI": 9.68},
      {"smiles": "CC(C)NCc1cccc(-c2ccc(NC(=O)c3ccc(C#N)cc3)cc2)c1", "IFI": 0.98},
      {"smiles": "O=C(Nc1cccc(CN2CCCN(Cc3ccc(O)cc3)CC2)c1)c1ccc2ccccc2n1", "IFI": 3.08}
    ]}
  ]
}
